Experimental data: patent US20210292392A1

Biological target: recombinant RBD of the spike protein of SARS-CoV-2 (residues Arg319-Phe541) (SARS-CoV-2), P0DTC2
Assay: ELISA, coated SARS-CoV-2 RBD
Details: remark: other sources report otherwise

B1: P2B-2G4 (antibody)
heavy: QVQLVESGGGVVQPGRSLRLSCAASGFTFSSYGMHWVRQAPGKGLEWVAVIWYDGSNKYYADSVKGRFTISRDNSKNTLYLQMNSLRAEDTAVYYCARGAAMVWLDYWGQGTLVTVSS[gap - human IgG1 constant region]
light: QSALTQPRSVSGSPGQSVTISCTGTSSDVGGYNYVSWYQQHPGKAPKLMIYDVSKRPSGVPDRFSGSKSGNTASLTISGLQAEDEADYYCCSYAGSYTFVVFGGGTKLTVLGQPKAAPSVTLFPPSSEELQANKATLVCLISDFYPGAVTVAWKADSSPVKAGVETTTPSKQSNNKYAASSYLSLTPEQWKSHRSYSCQVTHEGSTVEKTVAPTECS
Work on B1 yielded an EC50 (read off the curve) of 0.5 µg/mL.
